Results as given in patent US20210324087A1 (CRAGE MEDICAL, published 2021).

Target: T1, mouse CLL1-hFc (mouse; human, UniProt Q504P2 65-267, limits assumed)
T1 construct: also called murine CLL1; not shown: human Fc
T1 sequence (looked up): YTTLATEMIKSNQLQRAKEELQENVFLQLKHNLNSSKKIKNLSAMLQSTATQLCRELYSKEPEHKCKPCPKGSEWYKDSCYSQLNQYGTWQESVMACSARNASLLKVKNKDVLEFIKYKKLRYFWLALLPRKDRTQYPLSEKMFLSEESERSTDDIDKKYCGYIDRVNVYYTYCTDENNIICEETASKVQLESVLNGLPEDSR
Test: ELISA, plate coated with 1 ug/ml mouse CLL1-hFc, scFv detected with anti-His
Description: The species specificity of antibodies 7F8 and 12G4m was detected by standard ELISA. ELISA plates were coated with 1 ug/ml of Human CLL1-hFc, mouse CLL1-hFc, monkey CLL1-hFc at 4° C. overnight, blocked with 2% MPBS for 1-2 hours at room temperature, and 200 nM antibody 7F8/12G4m (scFv) was added to incubate at room temperature for 1 hour. The secondary antibody was diluted at 1:1000 with anti-His mouse monoclonal antibody, and the third antibody was goat anti-mouse-HRP diluted at 1:2000. After incubating for 1 hour at room temperature, the plates were developed and read at OD450 after quenching with 1 M concentrated sulfuric acid, as shown in FIG. 7. Antibodies 7F8 and 12G4m only bind to human CLL1, but not to murine CLL1 and monkey CLL1.

B1: 7F8 scFv (scFv)
scFv: [about 100 residues left out here]EYYFGYYGYLDYWGQGTLVTVSSGGGGSGGGGSGGGGSDIQMTQSPSTLSASVGDRVTITCRASQWIARWLAWYQQKPGKAPKLLIKDASNLESGVPSRFSGSGSGTEFTLTISSLQPDDFATYYCQQYYSYPMITFGQGTKVEIKR
notes: also called antibody 7F8
B1: no binding (tested: 200 nM).
